Laboratory results from the supplement of paper PMC4967469.
IC50 is the fitted dose that halves viability relative to control wells, and lower means more sensitive; a fit beyond the top or the lowest dose is shown as a bound at that dose. AUC, from the same fit, is the share of area under the viability curve across the 256-fold dose range; it is 1 without any effect and falls as sensitivity rises.

compound: FC(F)c1nc2ccccc2n1-c1nc(N2CCOCC2)nc(N2CCOCC2)n1 [ZSTK474]; test: Viability of human cancer cell lines after 72 h of drug (GDSC screen)
Experimental: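 Human cancer cell lines in 384-well plates, medium with 10% serum, drug for 72 h over a 256-fold dose range (nine 2-fold or five 4-fold steps up to the top dose). Adherent lines were fixed and stained with the nucleic acid dye Syto60, suspension lines read with resazurin; signal relative to control wells, capped at 0 and 100%. One two-parameter sigmoid per drug and line, fitted in a mixed model over all curves with the slope shared within a line.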

Cell Line	AUC	IC50 [nM]
HPAF-II (pancreas, adherent, top dose 5.12 µM)	0.642	895
HSC-2 (head and neck, adherent, top dose 5.12 µM)	0.883	4750
HSC-3 (head and neck, adherent, top dose 5.12 µM)	0.948	> 5120
HSC-4 (head and neck, adherent, top dose 5.12 µM)	0.945	> 5120
HSC-39 (stomach, suspension, top dose 5.12 µM)	0.893	4600
HT55 (large intestine, adherent, top dose 5.12 µM)	0.99	> 5120
HT (B-cell lymphoma, suspension, top dose 5.12 µM)	0.605	605
HT-3 (cervix, adherent, top dose 5.12 µM)	0.933	> 5120
HT-29 (large intestine, adherent, top dose 5.12 µM)	0.795	2380
HT-115 (large intestine, adherent, top dose 5.12 µM)	0.981	> 5120
HT-144 (melanoma, adherent, top dose 5.12 µM)	0.959	> 5120
HT-1080 (fibrosarcoma, adherent, top dose 5.12 µM)	0.95	> 5120
HT-1197 (bladder, adherent, top dose 5.12 µM)	0.92	> 5120
HT-1376 (bladder, adherent, top dose 5.12 µM)	0.973	> 5120
HTC-C3 (thyroid, adherent, top dose 5.12 µM)	0.698	1250
HUTU-80 (digestive system, adherent, top dose 5.12 µM)	0.545	414
HeLa (cervix, adherent, top dose 5.12 µM)	0.948	> 5120
Hep 3B2_1-7 (liver, adherent, top dose 5.12 µM)	0.909	> 5120
Hey (ovary, adherent, top dose 5.12 µM)	0.829	2950
Hs633T (fibrosarcoma, adherent, top dose 5.12 µM)	0.874	3490
Hs683 (glioma, adherent, top dose 5.12 µM)	0.854	4120

Cell Line	AUC	IC50 [nM]
Hs746T (stomach, adherent, top dose 5.12 µM)	0.525	383
Hs766T (pancreas, adherent, top dose 5.12 µM)	0.886	> 5120
Hs939-T (melanoma, adherent, top dose 5.12 µM)	0.962	> 5120
Hs940-T (melanoma, adherent, top dose 5.12 µM)	0.899	> 5120
Hs-445 (Hodgkin lymphoma, suspension, top dose 5.12 µM)	0.392	166
Hs-578-T (breast, adherent, top dose 5.12 µM)	0.987	> 5120
HuCCT1 (biliary tract, adherent, top dose 5.12 µM)	0.57	510
HuH-7 (liver, adherent, top dose 5.12 µM)	0.826	3100
HuO9 (osteosarcoma, adherent, top dose 5.12 µM)	0.554	457
HuO-3N1 (osteosarcoma, adherent, top dose 5.12 µM)	0.819	4210
HuP-T3 (pancreas, adherent, top dose 5.12 µM)	0.732	1730
HuP-T4 (pancreas, adherent, top dose 5.12 µM)	0.728	1490
IA-LM (large cell lung carcinoma, adherent, top dose 5.12 µM)	0.895	> 5120
IGR-1 (melanoma, adherent, top dose 5.12 µM)	0.877	4050
IGR-37 (melanoma, adherent, top dose 5.12 µM)	0.974	> 5120
IHH-4 (thyroid, semi-adherent, top dose 5.12 µM)	0.978	> 5120
IM-95 (stomach, adherent, top dose 5.12 µM)	0.58	536
IMR-5 (neuroblastoma, adherent, top dose 5.12 µM)	0.865	3390
IPC-298 (melanoma, adherent, top dose 5.12 µM)	0.857	4040
IST-MEL1 (melanoma, adherent, top dose 5.12 µM)	0.692	1240
IST-MES1 (mesothelioma, adherent, top dose 5.12 µM)	0.938	> 5120

Cell Line	AUC	IC50 [nM]
IST-SL1 (small cell lung carcinoma, semi-adherent, top dose 5.12 µM)	0.779	2160
IST-SL2 (small cell lung carcinoma, suspension, top dose 5.12 µM)	0.566	483
J82 (bladder, adherent, top dose 5.12 µM)	0.956	> 5120
JAR (urogenital system, adherent, top dose 5.12 µM)	0.851	3790
JEG-3 (urogenital system, adherent, top dose 5.12 µM)	0.968	> 5120
JHH-1 (liver, adherent, top dose 5.12 µM)	0.468	260
JHH-2 (liver, adherent, top dose 5.12 µM)	0.873	> 5120
JHH-4 (liver, adherent, top dose 5.12 µM)	0.786	2200
JHH-6 (liver, adherent, top dose 5.12 µM)	0.912	> 5120
JHH-7 (liver, adherent, top dose 5.12 µM)	0.922	> 5120
JHOS-2 (ovary, adherent, top dose 5.12 µM)	0.851	4980
JHOS-3 (ovary, adherent, top dose 5.12 µM)	0.84	5070
JHU-011 (head and neck, adherent, top dose 5.12 µM)	0.745	1590
JHU-022 (head and neck, adherent, top dose 5.12 µM)	0.799	3250
JIMT-1 (breast, adherent, top dose 5.12 µM)	0.777	2230
JJN-3 (haematopoietic neoplasm, suspension, top dose 5.12 µM)	0.737	1300
JM1 (B-cell lymphoma, suspension, top dose 5.12 µM)	0.743	1400
JSC-1 (B-cell lymphoma, suspension, top dose 5.12 µM)	0.704	1190
JURL-MK1 (chronic myeloid leukaemia, suspension, top dose 5.12 µM)	0.776	2040
JVM-2 (lymphoid neoplasm, suspension, top dose 5.12 µM)	0.939	> 5120
JVM-3 (lymphoid neoplasm, suspension, top dose 5.12 µM)	0.969	> 5120

Cell Line	AUC	IC50 [nM]
JiyoyeP-2003 (Burkitt lymphoma, suspension, top dose 5.12 µM)	0.849	3160
K2 (melanoma, adherent, top dose 5.12 µM)	0.849	> 5120
K5 (thyroid, adherent, top dose 5.12 µM)	0.653	834
KALS-1 (glioma, adherent, top dose 5.12 µM)	0.744	2120
KARPAS-45 (lymphoblastic leukaemia, suspension, top dose 5.12 µM)	0.197	50
KARPAS-299 (anaplastic large cell lymphoma, suspension, top dose 5.12 µM)	0.889	4130
KARPAS-422 (B-cell lymphoma, suspension, top dose 5.12 µM)	0.896	> 5120
KARPAS-620 (haematopoietic neoplasm, suspension, top dose 5.12 µM)	0.297	94.5
KASUMI-1 (acute myeloid leukaemia, suspension, top dose 5.12 µM)	0.184	36
KCL-22 (chronic myeloid leukaemia, suspension, top dose 5.12 µM)	0.687	965
KE-37 (lymphoblastic leukaemia, suspension, top dose 5.12 µM)	0.258	80.2
KELLY (neuroblastoma, adherent, top dose 5.12 µM)	0.836	2960
KG-1 (acute myeloid leukaemia, suspension, top dose 5.12 µM)	0.758	1600
KGN (ovary, adherent, top dose 5.12 µM)	0.452	230
KINGS-1 (glioma, adherent, top dose 5.12 µM)	0.933	> 5120
KLE (endometrium, adherent, top dose 5.12 µM)	0.721	1950
KM12 (large intestine, adherent, top dose 5.12 µM)	0.872	> 5120
KM-H2 (Hodgkin lymphoma, suspension, top dose 5.12 µM)	0.803	2100
